The values below come from the supplement of paper PMC11880418.

Some test systems named below: MKN45; PANC1; SUM159; T84.
Holding throughout (assay): ALDHbr (CSC) cell proportion score relative to DMSO vehicle (ratio to DMSO); breast (SUM159) / gastric (MKN45) / pancreatic (PANC1) / colon cancer lines; ALDHbr cells have high ALDH activity and are rich in cancer stem cells (CSC); higher = more CSC (ALDHbr) cells remaining
Conditions in all cases: 10 µM; 72 h

Molecules are shown by their SMILES. Where a name gives a salt, the structure may show the parent alone. The list shows a part of the results. The data scatter; read single values as rough.
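Further: High-content imaging of ALDEFLUOR-stained cells with Hoechst-labelled nuclei in 384-well plates, triplicate wells, scored as Z-score against 0.1% DMSO vehicle, negative meaning fewer ALDHbr cells.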

For the compound `CCCCOC(=O)c1ccc(N)cc1` [Butamben], the ALDHbr came out at 1.05 with MKN45, 0.3 in the experiment on PANC1, 0.941 in the experiment on SUM159 and 0.778 in the experiment with T84.
On the same counts, the results for `CNCC(O)c1ccc(O)c(O)c1` (stereo not given) [Racepinephrine hydrochloride] are 1.27, 0.796, 1.73 and 0.818.
`CC(=O)Oc1cccc2c1C(=O)c1c(OC(C)=O)cc(C(=O)O)cc1C2=O` [Diacerein]: the ALDHbr in the experiment on MKN45 amounted to 0.893; in the experiment with PANC1, 0.918; in the experiment with SUM159 it was 0.986; in the experiment on T84 it was 0.823.
On the same counts, the results for `Cc1cnc(C(=O)O)c[n+]1[O-]` [Acipimox] are 1, 0.951, 0.932 and 0.825.
The corresponding values for `CCN(CC)C(C)CN1c2ccccc2Sc2ccccc21` (stereo not given) [Ethopropazine hydrochloride] are 0.901, 1.14, 0.824 and 0.993.
The corresponding values for `COc1c2occc2c(OC)c2c(=O)cc(C)oc12` [Khellin] are 1.07, 0.871, 1.28 and 0.944.
On to `CC(C)NC[C@@H](O)COc1cccc2ccccc12` [(R)-Propranolol hydrochloride], for which the ALDHbr in the experiment on MKN45 was determined as 1.4; with PANC1 it was 0.876; with SUM159, 1.07; with T84, 0.889.
The corresponding values for `O=C(N/N=C/c1ccc([N+](=O)[O-])o1)c1ccc(O)cc1` [Nifuroxazide] are 0, 0.124, 0.154 and 0.00992.
On the same counts, the results for `Cc1nnc(NS(=O)(=O)c2ccc(N)cc2)s1` [Sulfamethizole] are 0.903, 0.869, 1.11 and 0.979.
On the same counts, the results for `CC[C@H](C)C(=O)O[C@H]1CCC=C2C=C[C@H](C)[C@H](CC[C@@H]3C[C@@H](O)CC(=O)O3)[C@H]21` [Mevastatin] are 0.557, 1.07, 1.82 and 0.772.
`COc1c(N2CCNC(C)C2)c(F)cc2c(=O)c(C(=O)O)cn(C3CC3)c12` (stereo not given) [Gatifloxacin]: the ALDHbr amounted to 1.43 in the experiment on MKN45, 1.02 with PANC1, 0.826 in the experiment on SUM159 and 1.08 in the experiment with T84.
The corresponding values for `CC(CN(C)C)CN1c2ccccc2CCc2ccccc21` (stereo not given) [Trimipramine maleate salt] are 1, 1.31, 0.973 and 0.791.
The corresponding values for `CC[C@H]1OC(=O)[C@H](C)[C@@H](O[C@H]2C[C@@](C)(OC)[C@@H](O)[C@H](C)O2)[C@H](C)[C@@H](O[C@@H]2O[C@H](C)C[C@H](N(C)C)[C@H]2O)[C@](C)(O)C[C@@H](C)C(=O)[C@H](C)[C@@H](O)[C@]1(C)O` [Erythromycin] are 1.14, 1.48, 1.05 and 1.06.
On the same counts, the results for `N=C(N)NC(=N)NCCc1ccccc1` [Phenformin hydrochloride] are 0.864, 1.24, 1.47 and 0.935.
As to `CC(=O)[C@H]1CC[C@H]2[C@@H]3CCC4=CC(=O)CC[C@]4(C)[C@H]3CC[C@]12C` [Progesterone], the ALDHbr in the experiment with MKN45 was found to be 0.332; with PANC1 it was 0.77; in the experiment with SUM159 it was 0.833; in the experiment on T84 it was 0.879.
The corresponding values for `NC[C@@H]1O[C@H](O[C@H]2[C@@H](O)[C@H](O[C@@H]3[C@@H](O)[C@H](N)C[C@H](N)[C@H]3O[C@H]3O[C@H](CN)[C@@H](O)[C@H](O)[C@H]3N)O[C@@H]2CO)[C@H](N)[C@@H](O)[C@@H]1O` [Neomycin sulfate] are 1.09, 0.891, 1.14 and 1.1.
On the same counts, the results for `C[C@H]1C[C@@H]2[C@H]([C@@H](O)C[C@@]3(C)[C@H]2CC[C@]3(O)C(=O)CO)[C@@]2(C)C=CC(=O)C=C12` [Methylprednisolone, 6-alpha] are 0.871, 0.507, 1.12 and 0.868.
On the same counts, the results for `O=C1CCc2cc(OCCCCc3nnnn3C3CCCCC3)ccc2N1` [Cilostazol] are 0.565, 0.147, 1.36 and 0.956.
As for `O=C(NCC1CCCCN1)c1cc(OCC(F)(F)F)ccc1OCC(F)(F)F` (stereo not given) [Flecainide acetate], the ALDHbr with MKN45 turned out to be 0.936; with PANC1, 0.801; in the experiment with SUM159, 0.947; with T84, 0.837.
On the same counts, the results for `OCc1cc(C(O)CNCCCCCCOCCCCc2ccccc2)ccc1O` (stereo not given) [Salmeterol] are 1.03, 1.05, 1.88 and 0.873.
On the same counts, the results for `CN1CCCCC1CCN1c2ccccc2Sc2ccc([S+](C)[O-])cc21` (stereo not given) [Mesoridazine besylate] are 1.08, 0.756, 0.623 and 0.818.
`CCCCOc1cc(C(=O)OCCN(CC)CC)ccc1N` [Benoxinate hydrochloride]: the ALDHbr in the experiment with MKN45 worked out at 0.726; with PANC1 it was 0.992; with SUM159, 1.22; with T84, 0.838.
`CN(C)CCCN1c2ccccc2Sc2ccc(Cl)cc21` [Chlorpromazine hydrochloride]: the ALDHbr with MKN45 stood at 0.833; with PANC1, 1.16; in the experiment on SUM159, 0.64; in the experiment on T84, 0.58.
The corresponding values for `CC(=O)Nc1c(I)c(NC(C)=O)c(I)c(C(=O)O)c1I` [Diatrizoic acid dihydrate] are 1.17, 1, 1.07 and 1.04.
As for `C#C[C@]1(OC(C)=O)CC[C@H]2[C@@H]3CCC4=C[C@@H](OC(C)=O)CC[C@@H]4[C@H]3CC[C@@]21C` [Ethynodiol diacetate], the ALDHbr in the experiment on MKN45 came out at 0.598; with PANC1, 1.08; with SUM159 it was 2.05; in the experiment on T84, 0.977.
